Results as given in PubChem BioAssay AID588855 (National Center for Advancing Translational Sciences (NCATS), 2011).
The campaign covered roughly 410,000 compounds. About 5,000 (1.2%) were called active. This list was built around the results that the source calls inconclusive (neither active nor inactive); the mix of calls is not that of the screen. The call rests on the fitted dose curve; in most records, active means well fitted inhibition curve with a large enough effect; inconclusive means small, poorly fitted or top-dose-only effect; inactive means no such curve, though single readings can be large or run the other way. Potencies beside an inconclusive call are fits to weak or partial responses and may not hold up.

Assay: qHTS for Inhibitors of TGF-b; further: nearly all actives have a fitted effect of over 65% in size
Details: HepG2 CAGA-GFP TGF-b/SMAD3 reporter, GFP fluorescence, 18 h, TGF-beta stimulated, 500 pg/mL final; series mostly up to 46.1 µM; activity, negative = inhibition: at the top concentration
Summary of the method: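 Inhibition was scored as loss of TGF-beta-induced (500 pg/mL final, 18 hours, 37 degrees C) GFP in HEPG2 cells carrying a CAGA-GFP reporter, in DMEM with 1% FBS. Well GFP was summed per cell; Activity was normalised to unstimulated and stimulated DMSO wells, then concentration-response fitting.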
On the % scale 0 is the no-effect control and ±100 the full control effect; potency means the concentration at half of the fitted maximal effect; tags describe the fitted curve by direction and shape.

| Structure (SMILES) | activity, negative = inhibition | Potency |
| --- | --- | --- |
| O=c1oc2c(CN3CCCCC3)c(O)ccc2cc1-c1nc2ccccc2[nH]1 | inactive: 28.8% | – |
| COc1ccc(NC(=O)COC(=O)CCSc2ccccc2)cc1 | – | inconclusive: 0.316 µM [inhibitor, full curve, poor fit] |
| CCCc1nc2ccccc2c(=O)n1NC(=O)c1c(O)c2cccc3c2n(c1=O)CCC3 | inactive: -4.34% | – |
| CN1CCC2(CC1)N=C(c1ccc(F)cc1)C(=S)N2C(=O)c1ccc(C(C)(C)C)cc1 | – | inconclusive: 35.5 µM [inhibitor, partial curve, poor fit] |
| O=C(O)CCCn1cc(NC(=O)c2ccco2)cn1 | – | inconclusive: 14.1 µM [inhibitor, partial curve] |
| Cc1ccc(-c2nc(=Nc3c(C)cc(C)cc3C)sn2-c2ccccc2)cc1 | – | active: 5.62 µM |
| CNC(=O)/C(C#N)=C/c1c(N(Cc2ccccc2)Cc2ccccc2)nc2ccccn2c1=O | – | inconclusive: 15.8 µM [inhibitor, partial curve, poor fit] |
| Cc1ccc(-n2ncc(C(=O)NCc3ccccc3)c2C2CCN(C(=O)OC(C)(C)C)CC2)cc1 | – | inconclusive: 17.8 µM [inhibitor, single point] |
| COc1ccc(C(=O)Nc2ccc(CN3CCS(=O)(=O)CC3)cc2)cc1 | – | inconclusive: 5.62 µM [inhibitor, single point] |
| N#Cc1ccc(OCC(=O)Nc2nc(-c3ccccn3)cs2)cc1 | – | inconclusive: 12.6 µM [inhibitor, single point] |
| NS(=O)(=O)c1ccc(N2N=C(c3ccccc3)CC2c2ccccc2)cc1 (configuration not stated) | – | inconclusive: 35.5 µM [inhibitor, partial curve, poor fit] |
| CCOC(=O)COc1ccc(/C=C/[N+](=O)[O-])c(OCC(=O)OCC)c1 | – | inconclusive: 20 µM [inhibitor, single point] |
| C/C(=N\NC(=O)c1ccccc1Cl)c1ccccn1 | – | inconclusive: 3.16 µM [inhibitor, single point] |
| COc1ccccc1Nc1c2c(nc3ccc(NC(=O)c4ccc(OC)c(OC)c4)cc13)CCCC2 | – | inconclusive: 22.4 µM [inhibitor, single point] |
| CC(C)(O)C#Cc1ccc(C(=O)N2CCN(c3ccc([N+](=O)[O-])cc3)CC2)cc1 | – | inconclusive: 31.6 µM [inhibitor, single point] |
| CCOC(=O)Cn1c(=O)n(CC2CCCO2)c2nc(-c3ccc(OCC)cc3)nc(C(N)=O)c21 (configuration not stated) | inactive: 5.16% | – |
| CCCCN(C=O)c1c(CC)nc2c(OCc3ccccc3C(=O)OC)cccn12 | – | inconclusive: 15.8 µM [inhibitor, single point] |
| Cc1cc(Nc2cccc(Cl)c2)nc2ccc(NC(=O)Cc3ccc(Cl)cc3)cc12 | – | inconclusive: 20 µM [inhibitor, single point] |
| COc1ccc2[nH]c(C)c(C(=O)CN(C)CC3OCCO3)c2c1 | – | inconclusive: 35.5 µM [inhibitor, partial curve, poor fit] |
| COc1ccccc1NC(=O)CSc1nnc(C2CCCCC2)n1-c1ccccc1 | inactive: 2.05% | – |
| OC[C@@H]1CN(Cc2ccc(Cl)cc2)C[C@H](n2cnc3c(NCc4ccco4)ncnc32)O1 | inactive: -0.582% | – |
| COCCNC(=O)c1ccc(-n2c(-c3ccccc3)cc3c2CCC(C)C3)cc1 (configuration not stated) | – | inconclusive: 7.94 µM [inhibitor, partial curve] |
| CCn1nc(C)c(CCN(C)C(=O)Nc2ccc(C)c(Cl)c2)c1C | – | inconclusive: 22.4 µM [inhibitor, single point] |

| Structure (SMILES) | activity, negative = inhibition | Potency |
| --- | --- | --- |
| COc1nc(Nc2nc3ccccc3c(=O)[nH]2)nc2ccc(C)cc12 | – | active: 5.62 µM |
| CCCN1CCN(CCCNC(=O)c2cc3c(=O)[nH]c4ccc(C)cc4c3s2)CC1 | – | inconclusive: 35.5 µM [inhibitor, single point] |
| COCCCNC(=O)c1c(-c2ccccc2)c(-c2ccccc2)nn(C)c1=O | – | inconclusive: 17.8 µM [inhibitor, single point] |
| COc1cc(NC(=O)c2nn(C)c3c2CS(=O)(=O)c2ccccc2-3)cc(OC)c1 | – | inactive |
| CCc1ccc(S(=O)(=O)NCc2cccnc2)cc1 | inactive: -23.6% | – |
| CCc1ccc(Cn2c(CNS(=O)(=O)c3ccc([N+](=O)[O-])cc3)nc3cccnc32)cc1 | – | inconclusive: 1.26 µM [inhibitor, full curve, poor fit] |
| COc1ccccc1C(=O)Nc1ccnn1C1CCN(Cc2ccccc2OCCO)CC1 | – | inconclusive: 31.6 µM [inhibitor, single point] |
| CCN(C(=O)Cn1nc(Cc2ccncc2)c2ccccc2c1=O)c1cccc(Cl)c1 | – | inconclusive: 14.1 µM [inhibitor, single point] |
| COc1ccc(/C=N/Nc2nc(-c3cccc(S(=O)(=O)N4CCCC4)c3)cs2)c(OC)c1 | – | inconclusive: 10 µM [inhibitor, partial curve, poor fit] |
| COc1ccc(/C=C/C(=O)c2ccoc2)cc1 | – | inconclusive: 11.2 µM [inhibitor, single point] |
| Cc1cccc(/C=C/c2nc3ccccc3c(=O)n2Cc2ccccc2)c1 | – | inconclusive: 35.5 µM [inhibitor, single point] |
| Cc1cccc(-n2c(C)c(C)c3c(N)ncnc32)c1 | – | inconclusive: 35.5 µM [inhibitor, single point] |
| Cc1ccccc1-n1c(SCC(=O)c2cc(C)n(C)c2C)nnc1-c1cccnc1 | – | inconclusive: 6.31 µM [inhibitor, single point] |
| CCOC(=O)c1cc(-c2ccc(OC)c(S(=O)(=O)NC3CCCCC3)c2)on1 | – | inconclusive: 35.5 µM [inhibitor, single point] |
| CCOC(=O)c1cc(Cl)c2c(ccc3ccccc32)n1 | inactive: -4.62% | – |
| O=c1cc(CN2CCN(c3ccccc3F)CC2)c2c(ccc3ccccc32)o1 | – | inconclusive: 8.91 µM [inhibitor, partial curve] |
| Cc1ccc(N/C=C/C(=O)c2ccco2)c(O)c1 | – | inconclusive: 35.5 µM [inhibitor, single point] |
| O=C(c1cc(-c2cccc(Cl)c2)nc2ccccc12)N1CCN(c2ccccn2)CC1 | – | inconclusive: 15.8 µM [inhibitor, single point] |
| O=C(Cc1ccc(Cl)cc1)Oc1cccc2cccnc12 | – | inconclusive: 35.5 µM [inhibitor, single point] |
| CCOC(=O)[C@H]1[C@H]2COc3ccc(Br)cc3[C@H]2N2C(=O)CN(Cc3ccc(Cl)cc3)C(=O)[C@@]12C | – | inconclusive: 22.4 µM [inhibitor, single point] |
| O=C(NCC1CCCCC1)C1CCC(=O)N(CCc2cccc(F)c2)C1 (configuration not stated) | inactive: -0.411% | – |
| COc1ccc(CCNC(=O)CN(C2CCCCC2)S(C)(=O)=O)cc1OC | inactive: -0.494% | – |
| Cc1ccc(Nc2nc(CSc3nnc(-c4ccncc4)n3-c3ccccc3C)cs2)cc1 | – | active: 11.2 µM |

| Structure (SMILES) | activity, negative = inhibition | Potency |
| --- | --- | --- |
| FC(F)Sc1ccc(-n2cc(-c3ccc(Cl)cc3)[n+]3c2CCC3)cc1 | inactive: 8.88% | – |
| Cc1cc(C)cc(NC(=O)NCC(O)COc2ccc([N+](=O)[O-])cc2)c1 (configuration not stated) | – | inconclusive: 12.6 µM [inhibitor, partial curve, poor fit] |
| C=CCc1c(C)nc(-c2ccccc2)nc1Nc1ccccc1O | – | inconclusive: 35.5 µM [inhibitor, single point] |
| COC(=O)c1c(/N=C/N(C)C)sc2c1CCN(c1ncc(C(F)(F)F)cc1Cl)C2 | – | inconclusive: 35.5 µM [inhibitor, single point] |
| FC(F)(F)c1cccc(NC(=S)NC2CCCC2)c1 | – | inconclusive: 35.5 µM [inhibitor, single point] |
| O=C(COc1ccccc1)NC(=S)Nc1cccc2cc(O)ccc12 | – | inconclusive: 10 µM [inhibitor, partial curve] |
| COc1ccc(S(=O)(=O)Nc2ccc3oc(C)c(C(=O)O)c3c2)cc1 | inactive: 0.835% | – |
| CCCN1CCC(=O)N(C(CSc2ccc(OC)cc2)Cc2ccccc2)CC1 (configuration not stated) | – | inconclusive: 14.1 µM [inhibitor, single point] |
| O=C1CC(C(=O)Nc2ccc(Cl)cc2[N+](=O)[O-])C2(CCCCC2)O1 (configuration not stated) | inactive: -35.8% | – |
| CCOc1ccc(Nc2cc(C)nc3c(C)cccc23)cc1 | – | inconclusive: 14.1 µM [inhibitor, single point] |
| Cc1cc(Nc2ccccc2C(=O)O)n(-c2ccc([N+](=O)[O-])cc2)n1 | inactive: -18.5% | – |
| O=C1CSC(=S)N1/N=C/c1ccc(O)c(O)c1O | – | inconclusive: 14.1 µM [inhibitor, single point] |
| Cc1cccc(NC(=O)COc2ccccc2C(=O)NC(C)c2ccccc2)c1 (configuration not stated) | – | inconclusive: 17.8 µM [inhibitor, single point] |
| O=C(CSc1nc(=O)n(Cc2ccco2)c2c1CCC2)Nc1cccc(F)c1 | – | active: 7.94 µM |
| COc1cccc(/C=N/NC(=S)Nc2cccnc2)c1 | inactive: -15.1% | – |
| COc1cc(SC)ccc1C(=O)N(Cc1ccccc1)c1ccccc1 | – | inconclusive: 35.5 µM [inhibitor, single point] |
| O=C(O)c1cccc2c1-c1ccc(Cl)cc1C2 | inactive: -0.397% | – |
| COc1ccc(-c2csc(NC(=O)c3cccc(N4C(=O)CCC4=O)c3)n2)cc1OC | inactive: 5.27% | – |
| Cc1ccc(Cl)cc1Nc1sc(C(=O)c2ccc(F)cc2)c(N)c1S(C)(=O)=O | – | inconclusive: 10 µM [inhibitor, single point] |
| Cc1cccc(Nc2nc(-c3sc(C)nc3C)cs2)c1 | – | inconclusive: 14.1 µM [inhibitor, single point] |
| CC(C)NC(=O)N(C)C[C@@H]1Oc2ccc(NC(=O)Nc3ccc(C(F)(F)F)cc3)cc2CC(=O)N([C@H](C)CO)C[C@@H]1C | – | inconclusive: 35.5 µM [inhibitor, single point] |
